Laboratory results taken from paper PMC4336329 (PLoS ONE, 2015).
Out of some 310,000 compounds screened, about 2,200 (0.71%) showed an effect of 50% or more. The effect is printed as a negative number. Some of the results follow.

What follows are compounds tested against human ether-à-go-go-related gene (hERG) potassium channel (human, UniProt Q12809) (assay: primary screen, population patch clamp on CHO cells stably expressing hERG).
Chain of human ether-à-go-go-related gene (hERG) potassium channel (Q12809 whole entry, looked up): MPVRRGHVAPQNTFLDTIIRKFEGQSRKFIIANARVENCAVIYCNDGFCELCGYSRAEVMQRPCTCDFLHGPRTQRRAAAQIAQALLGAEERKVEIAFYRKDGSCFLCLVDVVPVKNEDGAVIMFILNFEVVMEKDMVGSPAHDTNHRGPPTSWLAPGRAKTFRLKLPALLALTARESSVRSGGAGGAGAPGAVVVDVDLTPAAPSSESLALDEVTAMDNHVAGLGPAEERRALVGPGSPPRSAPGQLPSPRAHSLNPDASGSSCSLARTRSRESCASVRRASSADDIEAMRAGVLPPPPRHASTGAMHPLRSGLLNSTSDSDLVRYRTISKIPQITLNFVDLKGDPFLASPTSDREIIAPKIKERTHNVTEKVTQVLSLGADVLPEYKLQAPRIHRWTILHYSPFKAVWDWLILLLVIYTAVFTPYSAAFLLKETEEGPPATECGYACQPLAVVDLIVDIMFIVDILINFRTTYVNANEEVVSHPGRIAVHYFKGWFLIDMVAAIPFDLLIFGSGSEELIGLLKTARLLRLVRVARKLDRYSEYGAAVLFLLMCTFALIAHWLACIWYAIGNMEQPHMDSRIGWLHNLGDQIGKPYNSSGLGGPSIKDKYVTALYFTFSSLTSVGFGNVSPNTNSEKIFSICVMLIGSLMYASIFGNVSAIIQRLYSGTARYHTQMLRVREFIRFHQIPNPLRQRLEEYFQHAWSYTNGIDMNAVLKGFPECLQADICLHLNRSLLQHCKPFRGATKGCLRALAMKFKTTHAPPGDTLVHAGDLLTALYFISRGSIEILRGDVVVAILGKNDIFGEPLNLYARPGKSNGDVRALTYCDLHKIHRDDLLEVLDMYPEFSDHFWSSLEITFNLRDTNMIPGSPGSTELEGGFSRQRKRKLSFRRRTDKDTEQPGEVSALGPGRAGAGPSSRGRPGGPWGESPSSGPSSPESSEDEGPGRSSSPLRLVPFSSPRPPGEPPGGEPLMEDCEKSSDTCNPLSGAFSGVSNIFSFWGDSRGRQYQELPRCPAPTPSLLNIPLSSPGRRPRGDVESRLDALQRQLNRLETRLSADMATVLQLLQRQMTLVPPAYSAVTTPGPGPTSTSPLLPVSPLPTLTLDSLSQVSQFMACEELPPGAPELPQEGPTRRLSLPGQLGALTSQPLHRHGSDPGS
In the case of `O=C(CCC(=O)NNC(=O)COc1ccc(Br)cc1Br)NCc1ccccc1`, the “hERG current change (%, negative = inhibition) at 1uM” value is reported as 16.6%.
In the case of `Nc1cc(Cl)ccc1Oc1ccccc1`, the “hERG current change (%, negative = inhibition) at 1uM” value is reported as -9.39%.
`Oc1ccc(-c2nccc(-c3cccs3)n2)cc1` was tested, and the “hERG current change (%, negative = inhibition) at 1uM” value was -0.406%.
With `CNC(=O)NC(=O)COc1c(F)c(F)cc(F)c1F` the “hERG current change (%, negative = inhibition) at 1uM” value was 12.1%.
`CNc1ccc([N+](=O)[O-])cc1` was tested, and the “hERG current change (%, negative = inhibition) at 1uM” value was 9.7%.
In the case of `CCc1nnc(NC(=O)c2ccc(Cl)c(S(=O)(=O)N3CCc4ccccc43)c2)s1`, the “hERG current change (%, negative = inhibition) at 1uM” value is reported as 10%.
`O=C(O)c1c[nH]c2ccc(F)cc2c1=O` was tested, and the “hERG current change (%, negative = inhibition) at 1uM” value was 13.4%.
`COc1ccc(C(=O)NCCCc2ccccc2)cc1` was tested, and the “hERG current change (%, negative = inhibition) at 1uM” value was 7.99%.
With `O=C(NCCCN1CCOCC1)c1ccc2c(c1)N(Cc1ccccc1F)C(=O)c1ccccc1S2=O` (centres unmarked) the “hERG current change (%, negative = inhibition) at 1uM” value was 12.2%.
`O=C(CCCCCn1c(=S)[nH]c2ccc(Br)cc2c1=O)NCC1CCCO1` (centres unmarked) was tested, and the “hERG current change (%, negative = inhibition) at 1uM” value was 6.36%.
`CC1Sc2ccc(S(=O)(=O)N3CCC(C(=O)Nc4cccc(Cl)c4)CC3)cc2NC1=O` (centres unmarked) was tested, and the “hERG current change (%, negative = inhibition) at 1uM” value was 11.1%.
For `CC(C)CCN1CCN(Cc2cnc(N3CCCC3)s2)CC1CCO` (centres unmarked), the “hERG current change (%, negative = inhibition) at 1uM” value was 10.3%.
`O=C(Nc1ccccc1)OC1CCCCc2cccnc21` (centres unmarked) was tested, and the “hERG current change (%, negative = inhibition) at 1uM” value was 15.4%.
With `CC(C)CN(CC(C)C)c1nnc(NC(=O)Cn2c(=O)oc3ccccc32)s1` the “hERG current change (%, negative = inhibition) at 1uM” value was 10.6%.
In the case of `CC1CCN(C(=O)COc2ncnc3ccccc23)CC1`, the “hERG current change (%, negative = inhibition) at 1uM” value is reported as 4.83%.
In the case of `O=C(NNC(=S)Nc1ccc(Cl)cc1)c1ccccc1`, the “hERG current change (%, negative = inhibition) at 1uM” value is reported as 16.1%.
In the case of `O=C(Nc1ccccc1N1CCCC1)c1cccc(S(=O)(=O)N2CCOCC2)c1`, the “hERG current change (%, negative = inhibition) at 1uM” value is reported as 3.82%.
In the case of `Cc1ccc2cc(C#N)c(SCC(=O)N3CCCC3)nc2c1`, the “hERG current change (%, negative = inhibition) at 1uM” value is reported as 0.7%.
With `CCN(CC(=O)Nc1ccc2c(c1)OCCO2)Cc1cc(=O)oc2cc(C)c(C)cc12` the “hERG current change (%, negative = inhibition) at 1uM” value was 10%.
With `COC(=O)c1cc2n(n1)CCN(Cc1ccc(C)cc1)C2=O` the “hERG current change (%, negative = inhibition) at 1uM” value was -7.11%.
For `CN(C)Cc1c(O)ccc2occ(C(O)c3ccccc3)c12` (centres unmarked), the “hERG current change (%, negative = inhibition) at 1uM” value was 10.8%.
`CCOc1ccc(-c2ccc(/C=C3/C(=N)N4C=CSC4=NC3=O)o2)c([N+](=O)[O-])c1` was tested, and the “hERG current change (%, negative = inhibition) at 1uM” value was 7.31%.
In the case of `COc1ccc(CC(=O)N/N=C/c2cc(Br)cs2)cc1OC`, the “hERG current change (%, negative = inhibition) at 1uM” value is reported as 15.8%.
With `CCOC(=O)Cn1nnnc1CN(Cc1ccc(OC)cc1)Cc1cc2cc(C)ccc2[nH]c1=O` the “hERG current change (%, negative = inhibition) at 1uM” value was 12.4%.
`COCCCn1c(=O)c2ccccc2n(Cc2cc(C(=O)OC)ccc2OC)c1=O` was tested, and the “hERG current change (%, negative = inhibition) at 1uM” value was 15.7%.
`CC(C)[C@H](NC(=O)N1CCn2c1nc1ccccc12)C(=O)N[C@@H](C(=O)O)c1ccccc1` was tested, and the “hERG current change (%, negative = inhibition) at 1uM” value was 12.6%.
For `O=C(Nc1ccc(N2CCOCC2)nc1N1CCOCC1)c1cccc(C(F)(F)F)c1`, the “hERG current change (%, negative = inhibition) at 1uM” value was 10.4%.
For `Cc1cc(NC(=O)CSc2nc(=O)cc(N)n2-c2ccc(F)cc2)no1`, the “hERG current change (%, negative = inhibition) at 1uM” value was 3.33%.
For `CCN1CCN(CC(=O)N/N=C/c2cc(Br)cs2)CC1`, the “hERG current change (%, negative = inhibition) at 1uM” value was -1.01%.
With `Cc1ccc(S(=O)(=O)N2CCCCC2)cc1C(=O)Nc1cccnc1` the “hERG current change (%, negative = inhibition) at 1uM” value was -2.14%.
In the case of `O=C(O)CC(NC(=O)C(c1ccccc1)c1ccccc1)c1ccc(F)cc1` (centres unmarked), the “hERG current change (%, negative = inhibition) at 1uM” value is reported as 12%.
With `O=C(CCCc1nc2ccccc2s1)Nc1nccs1` the “hERG current change (%, negative = inhibition) at 1uM” value was 7.26%.
`Cc1coc2c(C)c3oc(=O)c(CCC(=O)NCCN4CCOCC4)c(C)c3cc12` was tested, and the “hERG current change (%, negative = inhibition) at 1uM” value was -1.1%.
With `Nc1nc(N)c2c(n1)CCCC2` the “hERG current change (%, negative = inhibition) at 1uM” value was 7.52%.
In the case of `COc1ccc(C2NCCc3c2[nH]c2ccccc32)cc1CSc1nc2ccccc2s1.Cl` (centres unmarked), the “hERG current change (%, negative = inhibition) at 1uM” value is reported as 12.1%.
In the case of `CN1CCC(N(C)CC(O)c2ccccc2)CC1.O=C(O)C(=O)O` (centres unmarked), the “hERG current change (%, negative = inhibition) at 1uM” value is reported as 1.81%.
With `COc1ccc(S(=O)(=O)N2CCCCC2)cc1NC(=O)c1ccc(CS(C)(=O)=O)cc1` the “hERG current change (%, negative = inhibition) at 1uM” value was 8.92%.
For `CCCC(=O)N(Cc1cc(=O)[nH]c2ccccc12)c1cccc(C)c1`, the “hERG current change (%, negative = inhibition) at 1uM” value was 13.7%.
In the case of `OC(Cn1cncn1)(Cn1cncn1)c1ccc(F)cc1F`, the “hERG current change (%, negative = inhibition) at 1uM” value is reported as 15.4%.
In the case of `CCOC(=O)c1ccc(NC(=O)NC2CC3CCC(C2)N3)cc1` (centres unmarked), the “hERG current change (%, negative = inhibition) at 1uM” value is reported as 13.3%.
`O=C(c1cccc(C(F)(F)F)c1)N1CCC(=O)N(C(CO)Cc2ccccc2)CC1` (centres unmarked) was tested, and the “hERG current change (%, negative = inhibition) at 1uM” value was 16.7%.
For `Cc1ccc(CN2CCN(Cc3ccc(OCCO)cc3)CC2CCO)o1` (centres unmarked), the “hERG current change (%, negative = inhibition) at 1uM” value was 1.83%.
With `C#CCOC(=O)CCCC(=O)NCCCCCCCC` the “hERG current change (%, negative = inhibition) at 1uM” value was 9.82%.
With `Cc1ccccc1CSCC(=O)Nc1c(C)n(C)n(-c2ccccc2)c1=O` the “hERG current change (%, negative = inhibition) at 1uM” value was -3.37%.
With `CCOC(=O)/C(C#N)=C/N1CCOCC1` the “hERG current change (%, negative = inhibition) at 1uM” value was 5.79%.
For `Cc1cc(S(=O)(=O)N2CCCC2)ccc1OCC(=O)Nc1ccc(C(N)=O)cc1`, the “hERG current change (%, negative = inhibition) at 1uM” value was 13.4%.
With `O=C(NCc1ccc(F)cc1)c1cnc2sccn2c1=O` the “hERG current change (%, negative = inhibition) at 1uM” value was 6.24%.
For `COCCn1c(C)cc(C2=NNC(=Nc3ccc(F)cc3)SC2)c1C`, the “hERG current change (%, negative = inhibition) at 1uM” value was 3.67%.
With `CCN(CC)S(=O)(=O)c1ccc(OC)c(N)c1` the “hERG current change (%, negative = inhibition) at 1uM” value was 12.2%.
With `CCN(C(=O)COC(=O)c1[nH]c(C)c(C(C)=O)c1C)c1c(N)n(Cc2ccccc2)c(=O)[nH]c1=O` the “hERG current change (%, negative = inhibition) at 1uM” value was 5.07%.
In the case of `COc1ccc(CCNC(=O)c2cnccn2)cc1`, the “hERG current change (%, negative = inhibition) at 1uM” value is reported as 14.9%.
In the case of `COc1ccc(C(=O)N/C(=C/c2ccco2)C(=O)N2CCCCCC2)cc1`, the “hERG current change (%, negative = inhibition) at 1uM” value is reported as 11.5%.
For `Cc1csc(=Nc2cccnc2)n1Cc1ccco1`, the “hERG current change (%, negative = inhibition) at 1uM” value was 8.97%.
`CCN1C(=O)/C(=C\N2CCCc3ccccc32)SC1=S` was tested, and the “hERG current change (%, negative = inhibition) at 1uM” value was 13.4%.
In the case of `CC(C)[C@@H](C(=O)N1CCN(C(=O)OC(C)(C)C)CC1)n1cc(CCO)nn1`, the “hERG current change (%, negative = inhibition) at 1uM” value is reported as 14.7%.
In the case of `CC1=NN(c2nc3ccccc3[nH]2)C(=O)/C1=C/N(C)C`, the “hERG current change (%, negative = inhibition) at 1uM” value is reported as -8.98%.
In the case of `O=C(Nc1ccccc1)O/N=C1/CCCc2occc21`, the “hERG current change (%, negative = inhibition) at 1uM” value is reported as 13.3%.
With `CS(=O)(=O)c1cnc(-c2ccccc2)nc1-c1ccccc1Cl` the “hERG current change (%, negative = inhibition) at 1uM” value was 7.74%.
With `COc1ccc(-n2c(SCC(=O)Nc3nc(C)cs3)nnc2-c2ccoc2C)cc1` the “hERG current change (%, negative = inhibition) at 1uM” value was -85%.
